Reference: article PMC7819943, “Rice protein-binding microarrays: a tool to detect cis-acting elements near promoter regions in rice”
The list shows a part of the results.

target: T1, OsWOX13 (Oryza sativa, UniProt Q5QMM3 1-267); assay: protein-binding microarray (RPBM); PBS, 2% BSA, 51.3 ng/ul salmon testes DNA, 50 uM zinc acetate, 200 nM TF, 25 C, 1 h; high values mean tight binding; details: protein: recombinant; tags: N-terminal polyhistidine and DsRed monomer fusion (pET32a); label: CyDye5-dUTP incorporated in the synthesized complementary strand; 3' TTTTT single-stranded linker to array surface; dsDNA, one strand shown
T1 sequence: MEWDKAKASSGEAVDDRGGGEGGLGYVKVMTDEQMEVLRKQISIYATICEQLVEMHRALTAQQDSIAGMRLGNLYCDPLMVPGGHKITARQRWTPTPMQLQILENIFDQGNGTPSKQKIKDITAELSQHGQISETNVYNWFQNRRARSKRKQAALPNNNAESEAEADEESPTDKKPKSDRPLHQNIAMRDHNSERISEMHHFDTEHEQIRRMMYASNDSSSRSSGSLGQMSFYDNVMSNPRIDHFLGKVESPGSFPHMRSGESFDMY
How it was run: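 Ni–NTA purification followed expression in E. coli BL21-CodonPlus of transcription factors fused N-terminally to a polyhistidine tag and DsRed. At 200 nM in PBS with 2% BSA, salmon testes DNA and 50 µM zinc acetate, the protein was incubated for 1 h at 25 °C with a custom Agilent array that had been primer-extended with Cy5-dUTP and blocked with 2% BSA. After washing, the array was read on an Axon 4000B scanner. The binding signal is per-feature fluorescence intensity in arbitrary units.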

| Sequence | binding signal |
| --- | --- |
| GTGGTCCAATCACCCTTTGACCCTTCGCCTCCGTGGCGCCCGGAGTCACCTAGTGCAG | 3380 fluorescence intensity (a.u.) |
| TTTAATTTGGTTGACTTACATAGTTAAATAGGAGTACCTACGGAGTCACCTAGTGCAG | 10600 fluorescence intensity (a.u.) |
| TTGATCATCTACCAATTAAGTGTACTAATTTGGATGATAACGGAGTCACCTAGTGCAG | 13600 fluorescence intensity (a.u.) |
| TTTAATTTACAATCTACATGCATGGGCTGGGCCCAACAAGCGGAGTCACCTAGTGCAG | 18700 fluorescence intensity (a.u.) |
| GTCTTCTTAAAATTAATCACTATGATGAAATGACCTCTAACGGAGTCACCTAGTGCAG | 3570 fluorescence intensity (a.u.) |
| ACATGGCCTAGTTGACATTAATTGGTATTATCTCTAGCGTCGGAGTCACCTAGTGCAG | 5530 fluorescence intensity (a.u.) |
| GGGGTTGTTCAGATTGATGCCATTTCAAACCATATCAATTCGGAGTCACCTAGTGCAG | 3270 fluorescence intensity (a.u.) |
| CATATGTCTATCTAGATTTATTAACATAAATATAAATGTGCGGAGTCACCTAGTGCAG | 9960 fluorescence intensity (a.u.) |
| ACCAATTAATAAAACTTCAATGCCAAACCTTTTATCACTACGGAGTCACCTAGTGCAG | 3810 fluorescence intensity (a.u.) |
| ATGTTTGTTTCCTTTAAATTAGCTATACTTTCTGTAATCCCGGAGTCACCTAGTGCAG | 4600 fluorescence intensity (a.u.) |
| AGACATTTGAATAATTGATAAACCTAAAAGTGGCAAATAGCGGAGTCACCTAGTGCAG | 13800 fluorescence intensity (a.u.) |
| TATACTAATTAATACACTCATAGCAATATTTGTGAGTATTCGGAGTCACCTAGTGCAG | 7290 fluorescence intensity (a.u.) |
| GTAGATTTTCTGTTTCCTAATCCATCCAACCATTGTAATTCGGAGTCACCTAGTGCAG | 4620 fluorescence intensity (a.u.) |
| AAACACTGATGATGACCAAATTTTACAAAGTTAATGGGCCCGGAGTCACCTAGTGCAG | 10400 fluorescence intensity (a.u.) |
| TCTCAGTTGATTGCTTCAAGACTTGTTGAGCTTGTTATGTCGGAGTCACCTAGTGCAG | 35800 fluorescence intensity (a.u.) |
| AATCTGTAATTTGTTTTGTTATTAGTCTACAGGCCTGTTCCGGAGTCACCTAGTGCAG | 11700 fluorescence intensity (a.u.) |
| TTATTAAGTTTATTGATGGTGATTTTCTGGATGGTTGAATCGGAGTCACCTAGTGCAG | 8850 fluorescence intensity (a.u.) |
| AATATATTCCATCGATAATCATCTCATCAAACATGACAAGCGGAGTCACCTAGTGCAG | 3830 fluorescence intensity (a.u.) |
| GAAATTAATAACAAATTAAAACCAGAGCCAGCTGACTGCTCGGAGTCACCTAGTGCAG | 21700 fluorescence intensity (a.u.) |
| TTTTCCAATTAAGAAAATATGCTGACATAGATATATTGTACGGAGTCACCTAGTGCAG | 6900 fluorescence intensity (a.u.) |
| CTTAAATCATGATGATTTTATTGGTTGTTGGCATGCACAGCGGAGTCACCTAGTGCAG | 30500 fluorescence intensity (a.u.) |

| Sequence | binding signal |
| --- | --- |
| CGATTGATTGATCCCGTCCCCTCCTTTGATCTGAGATTCACGGAGTCACCTAGTGCAG | 41700 fluorescence intensity (a.u.) |
| ATGATGACAGCACAAGCATTAGAATTATAGAATTTAACACCGGAGTCACCTAGTGCAG | 3180 fluorescence intensity (a.u.) |
| GGCCTGATGATGGAATGTGTCGGCTTAGGGATTGTAGTGTCGGAGTCACCTAGTGCAG | 4290 fluorescence intensity (a.u.) |
| AAACTAATCAGACAAACATCTCTCATCTGTCTATCAGTTTCGGAGTCACCTAGTGCAG | 7500 fluorescence intensity (a.u.) |
| GTAGTGAATGGCTGCCTAATTTTGTGCATTAACCATGGTGCGGAGTCACCTAGTGCAG | 5100 fluorescence intensity (a.u.) |
| GGACAATGACAGCACATTACGCGCACCTTTTCTTCTACCACGGAGTCACCTAGTGCAG | 4070 fluorescence intensity (a.u.) |
| AGCTGATTGTTTGGCCCAGCGACCGACGGCCTTTTACTGGCGGAGTCACCTAGTGCAG | 22800 fluorescence intensity (a.u.) |
| TTGTTAATTACCTTGTTTAATTAATTTCGCTAGCTTAGATCGGAGTCACCTAGTGCAG | 44700 fluorescence intensity (a.u.) |
| TTGGAGTGATTTGGCATCTCCTATCAGGCTGCGATAGGTACGGAGTCACCTAGTGCAG | 8500 fluorescence intensity (a.u.) |
| GATTTAGATTGGTGATCACTGCATCACTTTGATCACACCACGGAGTCACCTAGTGCAG | 29300 fluorescence intensity (a.u.) |
| GAGCTAAATTGATATGCTAAGACTAGATTAACAGAGACATCGGAGTCACCTAGTGCAG | 38900 fluorescence intensity (a.u.) |
| GTGATTGTATATAGAGGCTCACAACCGTGTCTTTGTGCTACGGAGTCACCTAGTGCAG | 3200 fluorescence intensity (a.u.) |
| AATAAATTTATTTTGGGAGGAAAGTAGTAATGCAGTCATGCGGAGTCACCTAGTGCAG | 12300 fluorescence intensity (a.u.) |
| CTGGATATCATCACTAACCTGATTAGGACAGAAATTATGACGGAGTCACCTAGTGCAG | 6400 fluorescence intensity (a.u.) |
| TTCTTTTAATTTCTACGTGTGTTCTTAGCATCATCCTGTCCGGAGTCACCTAGTGCAG | 3320 fluorescence intensity (a.u.) |
| GACCAACTGTAACTATGATTGATCCTTCTAGATCAAATTTCGGAGTCACCTAGTGCAG | 13600 fluorescence intensity (a.u.) |
| TTACTTAATTACTATAGATAATTAGTTGATTAGTGTTACTCGGAGTCACCTAGTGCAG | 45000 fluorescence intensity (a.u.) |
| CGAATCCTGTACAGATTTAATTAATTTCGAATTAACGCTTCGGAGTCACCTAGTGCAG | 9250 fluorescence intensity (a.u.) |
| GATCCCATGATTAGTATTCTGGTGCTGCGTTGTTCCGAATCGGAGTCACCTAGTGCAG | 15300 fluorescence intensity (a.u.) |
| TGACTAAAATGATTATCCGCGAAGTGACCCGCACCCTTCTCGGAGTCACCTAGTGCAG | 5460 fluorescence intensity (a.u.) |
| AATATAACTATAATATAATTGAAGTGTAATTACATTGTATCGGAGTCACCTAGTGCAG | 37900 fluorescence intensity (a.u.) |
